# Experimental data: the supplement of paper PMC8728848
# Some of the results follow.
# B1: L-Selectin (Homo sapiens), P14151 (protein)
# chain: MIFPWKCQSTQRDLWNIFKLWGWTMLCCDFLAHHGTDCWTYHYSEKPMNWQRARRFCRDNYTDLVAIQNKAEIEYLEKTLPFSRSYYWIGIRKIGGIWTWVGTNKSLTEEAENWGDGEPNNKKNKEDCVEIYIKRNKDAGKWNDDACHKLKAALCYTASCQPWSCSGHGECVEIINNYTCNCDVGYYGPQCQFVIQCEPLEAPELGTMDCTHPLGNFSFSSQCAFSCSEGTNLTGIEETTCGPFGNWSSPEPTCQVIQCEPLSAPDLGIMNCSHPLASFSFTSACTFICSEGTELIGKKKTICESSGIWSNPSPICQKLDKSFSMIKEGDYNPLFIPVAVMVTAFSGLAFIIWLARRLKKGKKSKRSMNDPY
# Tests used:
# Assay in all cases: glycan array binding signal (z-score within array); higher = stronger binding
# Details in all cases: glycan notation: IUPAC condensed, linker removed
# GlcNAc(b1-6)GalNAc = target: GlcNAc(b1-6)GalNAc
# Outline: (§1)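 The binding signal is a Z-score computed within each array. Data were drawn from 3228 arrays in the Consortium for Functional Glycomics database, restricted to those with a known protein sequence. Scores were averaged over arrays of the same protein sequence at different concentrations or buffers, and over linkers, and negative values can be taken as non-binding.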
# GlcNAc3Prop(b1-4)GlcNAc = target: GlcNAc3Prop(b1-4)GlcNAc
# Outline: as §1
# Kdn(a2-3)Gal(b1-3)GlcNAc = target: Kdn(a2-3)Gal(b1-3)GlcNAc
# Outline: as §1
# Kdn(a2-3)Gal(b1-4)GlcNAc = target: Kdn(a2-3)Gal(b1-4)GlcNAc
# Outline: as §1
# [1] = target: Man(a1-2)Man(a1-2)Man(a1-3)Man
# Outline: as §1
# [2] = target: Man(a1-2)Man(a1-2)Man(a1-6)[Man(a1-3)]Man
# Outline: as §1
# Man(a1-2)Man(a1-3)Man = target: Man(a1-2)Man(a1-3)Man
# Outline: as §1
# [3] = target: Man(a1-2)Man(a1-3)[Man(a1-2)Man(a1-6)]Man
# Outline: as §1
# [4] = target: Man(a1-2)Man(a1-3)[Man(a1-2)Man(a1-6)]Man(a1-6)[Man(a1-2)Man(a1-2)Man(a1-3)]Man
# Outline: as §1
# [5] = target: Man(a1-2)Man(a1-3)[Man(a1-2)Man(a1-6)]Man(a1-6)[Man(a1-2)Man(a1-2)Man(a1-3)]Man(b1-4)GlcNAc(b1-4)GlcNAc
# Outline: as §1
# [6] = target: Man(a1-2)Man(a1-3)[Man(a1-6)]Man(a1-6)[Man(a1-2)Man(a1-3)]Man(b1-4)GlcNAc(b1-4)GlcNAc
# Outline: as §1
# [7] = target: Man(a1-2)Man(a1-6)[Man(a1-3)]Man(a1-6)[Man(a1-2)Man(a1-2)Man(a1-3)]Man
# Outline: as §1
# [8] = target: Man(a1-2)Man(a1-6)[Man(a1-3)]Man(a1-6)[Man(a1-2)Man(a1-2)Man(a1-3)]Man(b1-4)GlcNAc(b1-4)GlcNAc
# Outline: as §1
# Man(a1-3)[Man(a1-6)]Man = target: Man(a1-3)[Man(a1-6)]Man
# Outline: as §1
# [9] = target: Man(a1-3)[Man(a1-6)]Man(a1-6)[Man(a1-2)Man(a1-3)]Man(b1-4)GlcNAc(b1-4)GlcNAc
# Outline: as §1
# [10] = target: Man(a1-3)[Man(a1-6)]Man(a1-6)[Man(a1-3)]Man
# Outline: as §1
# [11] = target: Man(a1-3)[Man(a1-6)]Man(a1-6)[Man(a1-3)]Man(b1-4)GlcNAc(b1-4)GlcNAc
# Outline: as §1
# [12] = target: Man(a1-3)[Man(a1-6)]Man(b1-4)GlcNAc(b1-4)GlcNAc
# Outline: as §1
# Man(a1-6)Man = target: Man(a1-6)Man
# Outline: as §1
# Man(b1-4)GlcNAc = target: Man(b1-4)GlcNAc
# Outline: as §1
# Neu5Ac(a2-3)Gal = target: Neu5Ac(a2-3)Gal
# Outline: as §1
# [13] = target: Neu5Ac(a2-3)Gal(b1-3)GalNAc
# Outline: as §1
# [14] = target: Neu5Ac(a2-3)Gal(b1-3)GalNAc(b1-3)Gal(a1-4)Gal(b1-4)Glc
# Outline: as §1
# [15] = target: Neu5Ac(a2-3)Gal(b1-3)GalNAc(b1-3)Gal(b1-4)GlcNAc
# Outline: as §1
# [16] = target: Neu5Ac(a2-3)Gal(b1-3)GalNAc(b1-4)[Neu5Ac(a2-3)]Gal(b1-4)Glc
# Outline: as §1
# [17] = target: Neu5Ac(a2-3)Gal(b1-3)GalNAc6S
# Outline: as §1
# [18] = target: Neu5Ac(a2-3)Gal(b1-3)GlcNAc
# Outline: as §1
# [19] = target: Neu5Ac(a2-3)Gal(b1-3)GlcNAc(b1-3)Gal(b1-3)GlcNAc
# Outline: as §1
# [20] = target: Neu5Ac(a2-3)Gal(b1-3)GlcNAc6S
# Outline: as §1
# [21] = target: Neu5Ac(a2-3)Gal(b1-3)[Fuc(a1-4)]GlcNAc
# Outline: as §1
# [22] = target: Neu5Ac(a2-3)Gal(b1-3)[Fuc(a1-4)]GlcNAc(b1-3)Gal(b1-4)[Fuc(a1-3)]GlcNAc
# Outline: as §1
# [23] = target: Neu5Ac(a2-3)Gal(b1-3)[Neu5Ac(a2-3)Gal(b1-4)]GlcNAc
# Outline: as §1
# [24] = target: Neu5Ac(a2-3)Gal(b1-3)[Neu5Ac(a2-6)]GalNAc
# Outline: as §1
# Neu5Ac(a2-3)Gal(b1-4)Glc = target: Neu5Ac(a2-3)Gal(b1-4)Glc
# Outline: as §1
# [25] = target: Neu5Ac(a2-3)Gal(b1-4)GlcNAc
# Outline: as §1
# [26] = target: Neu5Ac(a2-3)Gal(b1-4)GlcNAc(b1-2)Man(a1-3)[GlcNAc(b1-2)Man(b1-4)GlcNAc(b1-2)Man(a1-6)]Man(b1-4)GlcNAc(b1-4)GlcNAc
# Outline: as §1
# [27] = target: Neu5Ac(a2-3)Gal(b1-4)GlcNAc(b1-2)Man(a1-3)[Neu5Ac(a2-6)Gal(b1-4)GlcNAc(b1-2)Man(a1-6)]Man(b1-4)GlcNAc(b1-4)GlcNAc
# Outline: as §1
# [28] = target: Neu5Ac(a2-3)Gal(b1-4)GlcNAc(b1-3)Gal(b1-3)GlcNAc
# Outline: as §1
# [29] = target: Neu5Ac(a2-3)Gal(b1-4)GlcNAc(b1-3)Gal(b1-4)GlcNAc
# Outline: as §1
# [30] = target: Neu5Ac(a2-3)Gal(b1-4)GlcNAc(b1-3)Gal(b1-4)GlcNAc(b1-3)Gal(b1-4)GlcNAc
# Outline: as §1
# [31] = target: Neu5Ac(a2-3)Gal(b1-4)GlcNAc(b1-3)Gal(b1-4)[Fuc(a1-3)]GlcNAc
# Outline: as §1
# [32] = target: Neu5Ac(a2-3)Gal(b1-4)GlcNAc(b1-6)[Gal(b1-3)]GalNAc
# Outline: as §1
# [33] = target: Neu5Ac(a2-3)Gal(b1-4)GlcNAc(b1-6)[Neu5Ac(a2-3)Gal(b1-3)]GalNAc
# Outline: as §1
# [34] = target: Neu5Ac(a2-3)Gal(b1-4)GlcNAc6S
# Outline: as §1
binder,measurement,setting,value
B1,glycan array binding signal (z-score),GlcNAc(b1-6)GalNAc,-0.36
same,glycan array binding signal (z-score),GlcNAc3Prop(b1-4)GlcNAc,-0.165
same,glycan array binding signal (z-score),Kdn(a2-3)Gal(b1-3)GlcNAc,-0.259
same,glycan array binding signal (z-score),Kdn(a2-3)Gal(b1-4)GlcNAc,-0.255
same,glycan array binding signal (z-score),[1],-0.35
same,glycan array binding signal (z-score),[2],-0.267
same,glycan array binding signal (z-score),Man(a1-2)Man(a1-3)Man,0.096
same,glycan array binding signal (z-score),[3],-0.06
same,glycan array binding signal (z-score),[4],-0.265
same,glycan array binding signal (z-score),[5],-0.185
same,glycan array binding signal (z-score),[6],-0.024
same,glycan array binding signal (z-score),[7],0.018
same,glycan array binding signal (z-score),[8],-0.2
same,glycan array binding signal (z-score),Man(a1-3)[Man(a1-6)]Man,-0.371
same,glycan array binding signal (z-score),[9],-0.276
same,glycan array binding signal (z-score),[10],-0.198
same,glycan array binding signal (z-score),[11],-0.281
same,glycan array binding signal (z-score),[12],-0.246
same,glycan array binding signal (z-score),Man(a1-6)Man,-0.152
same,glycan array binding signal (z-score),Man(b1-4)GlcNAc,-0.256
same,glycan array binding signal (z-score),Neu5Ac(a2-3)Gal,-0.226
same,glycan array binding signal (z-score),[13],0.005
same,glycan array binding signal (z-score),[14],-0.403
same,glycan array binding signal (z-score),[15],-0.116
same,glycan array binding signal (z-score),[16],0.447
same,glycan array binding signal (z-score),[17],-0.152
same,glycan array binding signal (z-score),[18],-0.147
same,glycan array binding signal (z-score),[19],-0.063
same,glycan array binding signal (z-score),[20],-0.154
same,glycan array binding signal (z-score),[21],0.543
same,glycan array binding signal (z-score),[22],-0.02
same,glycan array binding signal (z-score),[23],-0.044
same,glycan array binding signal (z-score),[24],-0.262
same,glycan array binding signal (z-score),Neu5Ac(a2-3)Gal(b1-4)Glc,-0.207
same,glycan array binding signal (z-score),[25],-0.215
same,glycan array binding signal (z-score),[26],-0.315
same,glycan array binding signal (z-score),[27],-0.085
same,glycan array binding signal (z-score),[28],0.295
same,glycan array binding signal (z-score),[29],-0.338
same,glycan array binding signal (z-score),[30],-0.105
same,glycan array binding signal (z-score),[31],0.477
same,glycan array binding signal (z-score),[32],-0.172
same,glycan array binding signal (z-score),[33],-0.007
same,glycan array binding signal (z-score),[34],0.047
